Experimental data as given in PubChem BioAssay (Tox21).
The inconclusive results got no clear call from the source; some entries with a clear call stand among them for comparison. For part of these data: Where the call is inconclusive, the potency comes from a doubtful curve fit. Activity calls are given as the source filed them. Unless noted, calls come from the whole dose curve; as a rule, active = well fitted curve in the direction sought with a large enough effect in the repeat runs; inconclusive = weak or mixed curves; inactive = no such curve, though single readings can be large; an effect the other way counts as inactive or inconclusive.

Legend:
[1] = qHTS assay to identify aromatase inhibitors - cell viability counter screen (AID 743084); conditions: MCF-7 aro ERE viability, CellTiter-Fluor, 24 h; activity change, negative = cytotoxicity: at 70.3 µM (top of the series);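 note: cells stimulated with testosterone during compound exposure; potency is the fitted concentration of half-maximal effect; nearly all actives have a fitted effect of over 55% in size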
[2] = target: Aryl hydrocarbon receptor (Homo sapiens) (UniProt P35869); test: qHTS assay to identify small molecule that activate the aryl hydrocarbon receptor (AhR) signaling pathway (AID 743085); note: potency is the fitted concentration of half-maximal effect; nearly all actives have a fitted effect of over 15% in size
UniProt P35869, sequence (P35869 whole entry, looked up): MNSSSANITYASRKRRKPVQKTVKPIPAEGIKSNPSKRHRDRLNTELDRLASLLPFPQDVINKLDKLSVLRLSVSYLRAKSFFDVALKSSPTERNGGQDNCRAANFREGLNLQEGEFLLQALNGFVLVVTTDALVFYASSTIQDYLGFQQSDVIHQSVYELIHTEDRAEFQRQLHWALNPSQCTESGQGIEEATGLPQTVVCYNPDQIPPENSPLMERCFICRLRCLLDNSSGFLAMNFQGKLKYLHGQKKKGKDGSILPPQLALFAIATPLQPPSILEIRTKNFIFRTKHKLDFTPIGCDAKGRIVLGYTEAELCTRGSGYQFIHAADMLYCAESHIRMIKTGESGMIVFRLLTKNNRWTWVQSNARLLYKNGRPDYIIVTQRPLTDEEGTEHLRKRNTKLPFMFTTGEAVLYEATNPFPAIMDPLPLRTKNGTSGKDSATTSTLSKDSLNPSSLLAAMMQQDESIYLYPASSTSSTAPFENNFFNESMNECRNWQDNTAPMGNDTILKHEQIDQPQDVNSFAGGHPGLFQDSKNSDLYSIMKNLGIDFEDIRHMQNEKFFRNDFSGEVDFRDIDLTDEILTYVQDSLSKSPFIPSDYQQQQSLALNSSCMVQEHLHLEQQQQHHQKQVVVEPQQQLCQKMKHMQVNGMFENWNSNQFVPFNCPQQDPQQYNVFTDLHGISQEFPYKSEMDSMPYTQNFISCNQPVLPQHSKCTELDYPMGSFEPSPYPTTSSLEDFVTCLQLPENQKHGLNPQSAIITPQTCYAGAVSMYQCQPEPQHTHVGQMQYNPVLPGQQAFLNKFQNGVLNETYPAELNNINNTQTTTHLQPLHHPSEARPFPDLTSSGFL
Procedure, shortened: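 AhR agonist activity is inferred from enhanced light output of a DRE-controlled firefly luciferase reporter in HepG2 cells, measured with ONE-Glo following 24 h treatment at 37C.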

[3] = target: Peroxisome proliferator-activated receptor gamma (Homo sapiens) (UniProt P37231); test: qHTS assay to identify small molecule antagonists of the peroxisome proliferator-activated receptor gamma (PPARg) signaling pathway (AID 743191; calls by dose curve; note: nearly all actives have a fitted effect of over 30% in size; note: potency is the fitted concentration of half-maximal effect); conditions: HEK293H PPARg-UAS-bla, beta-lactamase ratio, antagonist, 17 h; ratio activity, negative = inhibition: at 62.6 µM (top of the series) unless noted
UniProt P37231, sequence (P37231 whole entry, looked up): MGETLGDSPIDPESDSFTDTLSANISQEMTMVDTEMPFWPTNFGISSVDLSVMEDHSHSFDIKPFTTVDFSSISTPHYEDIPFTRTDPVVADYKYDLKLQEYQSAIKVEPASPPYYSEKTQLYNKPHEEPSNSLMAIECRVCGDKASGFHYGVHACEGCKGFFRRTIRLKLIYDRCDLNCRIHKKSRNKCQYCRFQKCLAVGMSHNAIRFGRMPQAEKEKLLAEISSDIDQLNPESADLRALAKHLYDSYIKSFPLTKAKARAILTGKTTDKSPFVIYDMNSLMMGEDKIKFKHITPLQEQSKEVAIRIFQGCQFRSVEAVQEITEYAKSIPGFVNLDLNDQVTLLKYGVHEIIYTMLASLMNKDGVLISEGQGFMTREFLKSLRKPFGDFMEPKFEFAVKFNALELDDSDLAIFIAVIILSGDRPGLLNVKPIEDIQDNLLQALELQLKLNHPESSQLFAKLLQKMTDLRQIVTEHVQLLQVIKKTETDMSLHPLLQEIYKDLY
Procedure, shortened: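 Beta-lactamase reporter under UAS control in HEK293H PPARg-bla cells; compound treatment 17 h at 37C. Read-out: fluorescence intensity after 1 h room-temperature incubation with LiveBLAzer B/G FRET substrate.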

[4] = qHTS assay for small molecule agonists of the antioxidant response element (ARE) signaling pathway (AID 743202; active = well fitted activation curve with a large enough effect in the signal ratio in the repeat runs, not every such curve was filed as active; inconclusive = weak or mixed curves, or effect the other way; inactive = no such curve, though single readings can be large or run the other way; the % refers to the signal ratio; note: potency is the fitted concentration of half-maximal effect; for activation: % is set by controls: 0 for no effect and ±100 for the full control effect); conditions: HepG2 ARE-bla reporter, beta-lactamase FRET, 16 h; activation: at 73.3 µM (top of the series) unless noted
Procedure, shortened: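 Quantitative high-throughput format in HepG2 cells bearing an integrated ARE-beta-lactamase reporter. Compound exposure lasted 16 h at 37 C, and fluorescence was read 2 h after adding LiveBLAzer B/G substrate at room temperature.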

[5] = target: Bile acid receptor (Homo sapiens) (UniProt Q96RI1); test: qHTS assay to identify small molecule agonists of the farnesoid-X-receptor (FXR) signaling pathway (AID 743220; active = well fitted activation curve with a large enough effect in the signal ratio in the repeat runs, not every such curve was filed as active; inconclusive = weak or mixed curves, or effect the other way; the % refers to the signal ratio; note: % is set by controls: 0 for no effect and ±100 for the full control effect); conditions: HEK293T FXR-UAS-bla, beta-lactamase FRET ratio, 16 h; activation: at 62.6 µM (top of the series) unless noted
UniProt Q96RI1, sequence (Q96RI1 whole entry, looked up): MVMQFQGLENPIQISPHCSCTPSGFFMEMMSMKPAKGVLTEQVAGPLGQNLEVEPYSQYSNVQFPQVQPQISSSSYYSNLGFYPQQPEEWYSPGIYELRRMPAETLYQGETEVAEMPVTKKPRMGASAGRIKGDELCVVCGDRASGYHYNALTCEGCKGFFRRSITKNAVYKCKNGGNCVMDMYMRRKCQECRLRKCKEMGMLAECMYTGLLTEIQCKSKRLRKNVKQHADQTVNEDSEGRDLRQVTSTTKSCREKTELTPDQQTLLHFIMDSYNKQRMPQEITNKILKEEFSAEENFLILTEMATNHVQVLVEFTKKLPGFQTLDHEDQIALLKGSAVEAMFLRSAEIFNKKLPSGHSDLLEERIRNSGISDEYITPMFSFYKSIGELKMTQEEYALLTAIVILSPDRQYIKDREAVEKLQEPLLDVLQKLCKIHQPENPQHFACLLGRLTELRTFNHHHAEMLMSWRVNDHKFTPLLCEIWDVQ
Procedure, shortened: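 Beta-lactamase reporter under UAS control in GeneBLAzer FXR HEK 293T cells (5000/well) measured with LiveBLAzer FRET substrate after 2 h at room temperature. Compound exposure lasted 16 h at 37C.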

[6] = qHTS assay to identify small molecule that activate the aryl hydrocarbon receptor (AhR) signaling pathway - cell viability counter screen (AID 743086); note: potency is the fitted concentration of half-maximal effect; nearly all actives have a fitted effect of over 45% in size
Procedure, shortened: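 Cytotoxicity counter screen: CellTiter-Fluor signal (30 min, 37 C) in 4000 HepG2 cells/well carrying the DRE-luciferase reporter, following 24 h compound exposure at 37 C.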

[7] = qHTS assay to identify small molecule antagonists of the peroxisome proliferator-activated receptor gamma (PPARg) signaling pathway - cell viability counter screen (AID 743194); conditions: PPARg-bla HEK293H viability, CellTiter-Glo luminescence, 17 h, co-treated with 50 nM rosiglitazone; activity change, negative = cytotoxicity: at 62.6 µM (top of the series); note: nearly all actives have a fitted effect of over 55% in size; note: potency is the fitted concentration of half-maximal effect
Procedure, shortened: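 Viability was measured as CellTiter-Glo luminescence in GeneBLAzer PPARg UAS-bla HEK293H cells. These cells had been exposed 17 h at 37 C to compounds together with rosiglitazone at 50 nM final, with the beta-lactamase readout taken in the same wells.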

[8] = qHTS assay for small molecule agonists of the antioxidant response element (ARE) signaling pathway - cell viability counter screen (AID 743203; calls by dose curve; note: potency is the fitted concentration of half-maximal effect; nearly all actives have a fitted effect of over 55% in size); conditions: ARE-bla HepG2 viability, CellTiter-Glo luminescence, 16 h; viability change, negative = cytotoxic: at 73.3 µM (top of the series)
Procedure, shortened: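 Cells (ARE-bla HepG2, 2,000/well) receive DMSO-dissolved compounds after a 5 hrs rest. Plates incubate 16 hrs at 37C/5% CO2. CellTiter-Glo luminescence is then recorded after 30 min at room temperature.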

[9] = qHTS assay to identify small molecule agonists of the peroxisome proliferator-activated receptor delta (PPARd) signaling pathway - cell viability counter screen (AID 743211); conditions: PPARd-bla HEK293H viability, CellTiter-Glo luminescence, 17 h; activity change, negative = cytotoxicity: at 62.6 µM (top of the series); note: nearly all actives have a fitted effect of over 55% in size; note: potency is the fitted concentration of half-maximal effect
Procedure, shortened: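 qHTS cell viability: PPARd-bla HEK293H; 17 h cpd, 37C; CellTiter-Glo, luminescence at 30 min RT.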

[10] = qHTS assay to identify small molecule agonists of the farnesoid-X-receptor (FXR) signaling pathway - cell viability counter screen (AID 743218); conditions: FXR-bla HEK293T viability, CellTiter-Glo luminescence, 16 h; viability change, negative = cytotoxic: at 62.6 µM (top of the series) unless noted; note: potency is the fitted concentration of half-maximal effect; nearly all actives have a fitted effect of over 45% in size
Procedure, shortened: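 In GeneBLAzer FXR-UAS-bla HEK 293T cells, compounds act for 16 h at 37 C. Cell viability is then scored in the reporter wells by CellTiter-Glo, 30 min at RT, luminescence.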

[11] = target: Peroxisome proliferator-activated receptor gamma (Homo sapiens) (UniProt P37231); test: qHTS assay to identify small molecule agonists of the peroxisome proliferator-activated receptor gamma (PPARg) signaling pathway (AID 743094; active = well fitted activation curve with a large enough effect in the signal ratio in the repeat runs, not every such curve was filed as active; inconclusive = weak or mixed curves, or effect the other way; inactive = no such curve, though single readings can be large or run the other way; the % refers to the signal ratio; note: % is set by controls: 0 for no effect and ±100 for the full control effect); conditions: HEK293H PPARg-UAS-bla, beta-lactamase FRET ratio, 17 h; activation: at 57 µM (top of the series) unless noted
Procedure, shortened: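 Stably transfected HEK293H cells (GeneBLAzer PPARg UAS-bla) were incubated with test substances for 17 h at 37C after a 5 h pre-incubation; beta-lactamase activity was then detected by FRET substrate fluorescence.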

[12] = qHTS assay to identify small molecule antagonists of the peroxisome proliferator-activated receptor delta (PPARd) signaling pathway - cell viability counter screen (AID 743213); conditions: PPARd-bla HEK293H viability, CellTiter-Glo luminescence, 17 h; viability change, negative = cytotoxic: at 62 µM (top of the series) unless noted; note: potency is the fitted concentration of half-maximal effect; nearly all actives have a fitted effect of over 50% in size
Procedure, shortened: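 Cytotoxicity counter screen: CellTiter-Glo luminescence read 30 min after addition, in the same wells as the reporter assay. There, PPARd UAS-bla HEK293H cells (3000/well) were treated 17 h at 37 C with compound and 300 nM L165041.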

[13] = target: Vitamin D3 receptor (Homo sapiens) (UniProt P11473); test: qHTS assay to identify small molecule agonists of the vitamin D receptor (VDR) signaling pathway (AID 743222; calls by dose curve; note: % is set by controls: 0 for no effect and ±100 for the full control effect); conditions: HEK293T VDR-UAS-bla, beta-lactamase FRET ratio, 16 h; activation: at 63.5 µM (top of the series) unless noted
UniProt P11473, sequence (P11473 whole entry, looked up): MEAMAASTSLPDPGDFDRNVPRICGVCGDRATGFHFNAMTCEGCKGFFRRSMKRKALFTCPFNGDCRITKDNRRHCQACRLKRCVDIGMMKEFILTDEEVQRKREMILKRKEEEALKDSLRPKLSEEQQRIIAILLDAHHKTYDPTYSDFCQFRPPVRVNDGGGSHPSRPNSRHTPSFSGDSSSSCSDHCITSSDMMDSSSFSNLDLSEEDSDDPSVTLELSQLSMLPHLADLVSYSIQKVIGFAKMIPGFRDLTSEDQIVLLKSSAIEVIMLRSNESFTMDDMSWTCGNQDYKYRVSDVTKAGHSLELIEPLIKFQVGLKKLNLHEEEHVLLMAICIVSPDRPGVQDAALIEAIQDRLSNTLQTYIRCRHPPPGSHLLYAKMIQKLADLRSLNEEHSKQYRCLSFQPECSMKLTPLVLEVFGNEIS
Procedure, shortened: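 Agonist activity measured in VDR-bla reporter cells. Exposure 16 h, 37C, 5% CO2; detection by B/G FRET substrate, 2 h RT.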

[14] = target: Vitamin D3 receptor (Homo sapiens) (UniProt P11473); test: qHTS assay to identify small molecule antagonists of the vitamin D receptor (VDR) signaling pathway (AID 743223; active = well fitted inhibition curve with a large enough effect in the signal ratio in the repeat runs, not every such curve was filed as active; inconclusive = weak or mixed curves, or effect the other way; inactive = no such curve, though single readings can be large or run the other way; the % refers to the signal ratio; note: potency is the fitted concentration of half-maximal effect); conditions: VDR-UAS-bla HEK293T, beta-lactamase FRET ratio, 16 h; activity change, negative = inhibition: at 61 µM (top of the series) unless noted
Procedure, shortened: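 Reporter line VDR-bla; stimulus 1alpha,25-(OH)2 vitamin D3, 3 nM final; compound co-addition, 16 h 37C/5% CO2; LiveBLAzer B/G substrate 2 h RT; fluorescence intensity.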
Tags give direction and shape of the fitted curve or compound fluorescence and quenching.

Q: With `COc1cc(C(C)(C)C)c(O)c(C(C)(C)C)c1` as the compound, how does the Potency [1] read?
A: inconclusive: 68.6 µM [cytotoxic, single point]

Q: What about the Potency [2] of the same compound?
A: inconclusive: 77 µM [activator, partial curve, poor fit]

Q: And the Potency [3]?
A: inconclusive: 21.9 µM [activator, partial curve, poor fit]

Q: What about the Potency [4] of the same compound?
A: inactive

Q: And the Potency [5]?
A: inactive

Q: With `CNc1ccc([N+](=O)[O-])cc1` as the compound, how does the Potency [1] read?
A: active: 34.4 µM

Q: And the Potency [2]?
A: active: 54.6 µM

Q: And the Potency [6]?
A: inconclusive: 54.6 µM [falling, partial curve]

Q: And the ratio activity, negative = inhibition [3]?
A: inconclusive: 10.7%

Q: What about the Potency [7] of the same compound?
A: inactive

Q: What about the Potency [8] of the same compound?
A: inconclusive: 27.4 µM [cytotoxic, partial curve, poor fit]

Q: What about the Potency [9] of the same compound?
A: inconclusive: 49.1 µM [cytotoxic, partial curve, poor fit]

Q: What about the Potency [10] of the same compound?
A: active: 27.6 µM

Q: What does the source list for `CCCCCCOc1ccc(O)cc1`?
A: Potency [1]: inconclusive: 61.1 µM [cytotoxic, partial curve]; Potency [2]: inconclusive: 34.4 µM [activator, partial curve, poor fit]; activation [11]: inconclusive: -14.2%; Potency [3]: inconclusive: 61.7 µM [rising, single point]; Potency [7]: inconclusive: 5.49 µM [cytotoxic, full curve, poor fit]; Potency [4]: active: 27.3 µM; Potency [12]: inconclusive: 54.9 µM [cytotoxic]; Potency [13]: inactive; Potency [14]: inconclusive: 21.9 µM [inhibitor, partial curve]

Q: With `Cc1ccc(NC(=O)c2ccc(CN3CCN(C)CC3)cc2)cc1Nc1nccc(-c2cccnc2)n1` as the compound, how does the Potency [1] read?
A: inconclusive: 29.8 µM [cytotoxic, partial curve]

Q: What about the Potency [2] of the same compound?
A: active: 21.1 µM

Q: What about the Potency [6] of the same compound?
A: inconclusive: 29.8 µM [falling, single point]

Q: What about the activity change, negative = cytotoxicity [9] of the same compound?
A: inconclusive: -35.3% [cytotoxic]

Q: What about the Potency [12] of the same compound?
A: inconclusive: 3.35 µM [cytotoxic, partial curve, poor fit]
